# In patent US20100209345A1, “Fluorinated Ligands for Targeting Peripheral Benzodiazepine Receptors” (Australian Nuclear Science & Technology Organisation, priority 2006, published 2010):
# This continues a long series; more values of the same kind are listed elsewhere.
# Test: Biodistribution of 18F-labelled tracers in rats
# Format: in vivo
# Conditions: corrected for decay of 18F
# Experimental: [^18F]Fluoride, in the form of H^18F, was produced by the ^18O(p,n)^18F nuclear reaction by bombardment of ^18O-enriched water target. The aqueous [^18F]fluoride solution was added to a 2.5-mL wheaton vial containing dry acetonitrile (1 mL), Kryptofix 2.2.2 (5 mg, 13.3 μmol) and potassium carbonate (2 mg, 14.5 μmol). The solvent was evaporated under a stream of nitrogen at 90° C. with a reducing vacuum. This azeotropic drying was repeated twice by further addition of acetonitrile (2×1 mL). The tosylate precursor 2-(2-(4-(2-tosylethoxy)phenyl)-6-chloroimidazo[1,2-a]pyridin-3-yl)-N,N-diethylacetamide (2 mg, 3.6 μmol) was dissolved in acetonitrile (1 ml) and added to the dried K222.K2CO3.KF complex. Stirring and heating at 90° C. continued for 10 to 15 mins before the reaction mixture was diluted with mobile phase and purified by reverse phase HPLC on an Alltech Alltima, C18, 10μ, 250×22 mm column eluting at 10 mLs/min with 45% acetonitrile, 55% water with 0.1% TFA.
# The biodistribution of PBR132* was undertaken in SD rats and analysis up to 4 h p.i. in the brain and peripheral tissues was performed. The specificity and selectivity of the tracer were assessed by pre-treatment with PBR and Central benzodiazepine receptor (CBR) specific ligands (1 mg/kg) 5 min prior to injection of PBR132*.
# The biodistribution of PBR 147* was performed in SD rats and brain and peripheral tissues were analysised at 15, 30 min, 1, and 4 h p.i. The specificity and selectivity of the tracer was assessed by pre-treatment of the animals with the PBR ligands PK11195 and Ro 5-4864 and with Flumazenil for CBR at 1 mg/kg 5 min prior to injection of PBR 147*
# The biodistribution of PBR102* and PBR111* were performed in SD rats and brain and peripheral tissues analysed at 15, 30 min, 1, and 4 h p.i. The specificity and selectivity of the tracers were assessed by pre-treatment with the PBR ligands PK11195 and Ro 5-4864 and with Flumazenil for CBR at 1 mg/kg 5 min prior to injection of the corresponding tracers.
# The specificity and selectivity of the tracers were assessed by pre-treatment with the PBR ligands PK11195 and Ro 5-4864 and with Flumazenil for CBR at 1 mg/kg 5 min prior to injection of the corresponding tracers.
smiles,measurement,setting,value
"CCN(CC)C(=O)Cc1c(-c2ccc(OCCF)cc2)nc2ccc(Cl)cn12 [PBR102, 2-(2-(4-(2-fluoroethoxy)phenyl)-6-chloroimidazo[1,2-a]pyridin-3-yl)-N,N-diethylacetamide]",Biodistribution: Adrenals,15 min,6.66 ± 1.31 % ID/g
same,Biodistribution: Bladder,15 min,0.49 ± 0.10 % ID/g
same,Biodistribution: Blood,15 min,0.20 ± 0.04 % ID/g
same,Biodistribution: Brain,15 min,0.20 ± 0.01 % ID/g
same,Biodistribution: GIT,15 min,0.67 ± 0.06 % ID/g
same,Biodistribution: Kidney,15 min,3.26 ± 0.27 % ID/g
same,Biodistribution: Liver,15 min,0.63 ± 0.15 % ID/g
same,Biodistribution: Muscle,15 min,0.41 ± 0.02 % ID/g
same,Biodistribution: Olfactory bulbs,15 min,0.55 ± 0.07 % ID/g
same,Biodistribution: Pancreas,15 min,1.41 ± 0.09 % ID/g
same,Biodistribution: Spleen,15 min,4.48 ± 0.52 % ID/g
same,Biodistribution: Stomach,15 min,0.66 ± 0.15 % ID/g
same,Biodistribution: Testes,15 min,0.17 ± 0.01 % ID/g
same,Biodistribution: Thymus,15 min,0.55 ± 0.13 % ID/g
same,Biodistribution: Thyroid,15 min,6.28 ± 1.36 % ID/g
same,Biodistribution: Adrenals,30 min,7.92 ± 1.70 % ID/g
same,Biodistribution: Bladder,30 min,0.55 ± 0.10 % ID/g
same,Biodistribution: Blood,30 min,0.17 ± 0.02 % ID/g
same,Biodistribution: Brain,30 min,0.16 ± 0.02 % ID/g
same,Biodistribution: GIT,30 min,0.86 ± 0.13 % ID/g
same,Biodistribution: Kidney,30 min,3.25 ± 0.50 % ID/g
same,Biodistribution: Liver,30 min,0.52 ± 0.14 % ID/g
same,Biodistribution: Muscle,30 min,0.38 ± 0.03 % ID/g
same,Biodistribution: Olfactory bulbs,30 min,0.35 ± 0.01 % ID/g
same,Biodistribution: Pancreas,30 min,1.13 ± 0.26 % ID/g
same,Biodistribution: Spleen,30 min,3.88 ± 0.44 % ID/g
same,Biodistribution: Stomach,30 min,0.57 ± 0.12 % ID/g
same,Biodistribution: Testes,30 min,0.23 ± 0.03 % ID/g
same,Biodistribution: Thymus,30 min,0.65 ± 0.07 % ID/g
same,Biodistribution: Thyroid,30 min,8.77 ± 2.27 % ID/g
same,Biodistribution: Adrenals,60 min,7.31 ± 1.14 % ID/g
same,Biodistribution: Bladder,60 min,0.52 ± 0.08 % ID/g
same,Biodistribution: Blood,60 min,0.18 ± 0.01 % ID/g
same,Biodistribution: Brain,60 min,0.17 ± 0.01 % ID/g
same,Biodistribution: GIT,60 min,0.94 ± 0.05 % ID/g
same,Biodistribution: Kidney,60 min,2.72 ± 0.23 % ID/g
same,Biodistribution: Liver,60 min,0.35 ± 0.01 % ID/g
same,Biodistribution: Muscle,60 min,0.34 ± 0.04 % ID/g
same,Biodistribution: Olfactory bulbs,60 min,0.44 ± 0.02 % ID/g
same,Biodistribution: Pancreas,60 min,0.75 ± 0.11 % ID/g
same,Biodistribution: Spleen,60 min,3.42 ± 0.19 % ID/g
same,Biodistribution: Stomach,60 min,0.45 ± 0.08 % ID/g
same,Biodistribution: Testes,60 min,0.31 ± 0.03 % ID/g
same,Biodistribution: Thymus,60 min,0.77 ± 0.10 % ID/g
same,Biodistribution: Thyroid,60 min,8.24 ± 0.99 % ID/g
same,Biodistribution: Adrenals,4 hours,7.14 ± 1.04 % ID/g
same,Biodistribution: Bladder,4 hours,0.90 ± 0.07 % ID/g
same,Biodistribution: Blood,4 hours,0.21 ± 0.01 % ID/g
same,Biodistribution: Brain,4 hours,0.19 ± 0.01 % ID/g
same,Biodistribution: GIT,4 hours,1.17 ± 0.17 % ID/g
same,Biodistribution: Kidney,4 hours,1.35 ± 0.11 % ID/g
same,Biodistribution: Liver,4 hours,0.29 ± 0.02 % ID/g
same,Biodistribution: Muscle,4 hours,0.23 ± 0.03 % ID/g
same,Biodistribution: Olfactory bulbs,4 hours,0.40 ± 0.07 % ID/g
same,Biodistribution: Pancreas,4 hours,0.40 ± 0.06 % ID/g
same,Biodistribution: Spleen,4 hours,1.92 ± 0.23 % ID/g
same,Biodistribution: Stomach,4 hours,0.41 ± 0.12 % ID/g
same,Biodistribution: Testes,4 hours,0.42 ± 0.01 % ID/g
same,Biodistribution: Thymus,4 hours,0.98 ± 0.18 % ID/g
same,Biodistribution: Thyroid,4 hours,5.75 ± 0.89 % ID/g
"CCN(CC)C(=O)Cc1c(-c2ccc(OCCCF)cc2)nc2ccc(Cl)cn12 [PBR111, 2-(2-(4-(3-fluoropropoxy)phenyl)-6-chloroimidazo[1,2-a]pyridin-3-yl)-N,N-diethylacetamide]",Biodistribution: Adrenals,15 min,6.26 ± 0.94 % ID/g
same,Biodistribution: Bladder,15 min,0.60 ± 0.28 % ID/g
same,Biodistribution: Blood,15 min,0.41 ± 0.08 % ID/g
same,Biodistribution: Brain,15 min,0.27 ± 0.04 % ID/g
same,Biodistribution: GIT,15 min,1.05 ± 0.08 % ID/g
same,Biodistribution: Kidney,15 min,4.56 ± 0.34 % ID/g
same,Biodistribution: Liver,15 min,1.37 ± 0.20 % ID/g
same,Biodistribution: Muscle,15 min,0.61 ± 0.16 % ID/g
same,Biodistribution: Olfactory bulbs,15 min,0.64 ± 0.10 % ID/g
same,Biodistribution: Pancreas,15 min,1.99 ± 0.18 % ID/g
same,Biodistribution: Spleen,15 min,7.25 ± 1.57 % ID/g
same,Biodistribution: Stomach,15 min,0.82 ± 0.20 % ID/g
same,Biodistribution: Testes,15 min,0.29 ± 0.03 % ID/g
same,Biodistribution: Thymus,15 min,0.91 ± 0.17 % ID/g
same,Biodistribution: Thyroid,15 min,9.82 ± 0.74 % ID/g
same,Biodistribution: Adrenals,30 min,6.49 ± 0.93 % ID/g
same,Biodistribution: Bladder,30 min,0.68 ± 0.08 % ID/g
same,Biodistribution: Blood,30 min,0.30 ± 0.06 % ID/g
same,Biodistribution: Brain,30 min,0.17 ± 0.02 % ID/g
same,Biodistribution: GIT,30 min,1.22 ± 0.20 % ID/g
same,Biodistribution: Kidney,30 min,4.34 ± 0.52 % ID/g
same,Biodistribution: Liver,30 min,0.86 ± 0.17 % ID/g
same,Biodistribution: Muscle,30 min,0.57 ± 0.10 % ID/g
same,Biodistribution: Olfactory bulbs,30 min,0.54 ± 0.07 % ID/g
same,Biodistribution: Pancreas,30 min,1.28 ± 0.12 % ID/g
same,Biodistribution: Spleen,30 min,5.98 ± 0.63 % ID/g
same,Biodistribution: Stomach,30 min,1.06 ± 0.23 % ID/g
same,Biodistribution: Testes,30 min,0.33 ± 0.03 % ID/g
same,Biodistribution: Thymus,30 min,1.10 ± 0.35 % ID/g
same,Biodistribution: Thyroid,30 min,10.33 ± 0.99 % ID/g
same,Biodistribution: Adrenals,60 min,9.23 ± 1.25 % ID/g
same,Biodistribution: Bladder,60 min,1.01 ± 0.28 % ID/g
same,Biodistribution: Blood,60 min,0.18 ± 0.04 % ID/g
same,Biodistribution: Brain,60 min,0.13 ± 0.01 % ID/g
same,Biodistribution: GIT,60 min,1.54 ± 0.19 % ID/g
same,Biodistribution: Heart,60 min,6.72 ± 0.80 % ID/g
same,Biodistribution: Kidney,60 min,4.11 ± 0.66 % ID/g
same,Biodistribution: Liver,60 min,0.65 ± 0.09 % ID/g
same,Biodistribution: Muscle,60 min,0.44 ± 0.04 % ID/g
same,Biodistribution: Olfactory bulbs,60 min,0.54 ± 0.10 % ID/g
same,Biodistribution: Pancreas,60 min,0.92 ± 0.10 % ID/g
same,Biodistribution: Spleen,60 min,5.27 ± 0.85 % ID/g
same,Biodistribution: Stomach,60 min,0.78 ± 0.12 % ID/g
same,Biodistribution: Testes,60 min,0.40 ± 0.01 % ID/g
same,Biodistribution: Thymus,60 min,1.12 ± 0.21 % ID/g
same,Biodistribution: Thyroid,60 min,10.72 ± 2.14 % ID/g
same,Biodistribution: Adrenals,4 hours,16.46 ± 0.97 % ID/g
same,Biodistribution: Bladder,4 hours,1.20 ± 0.23 % ID/g
same,Biodistribution: Blood,4 hours,0.11 ± 0.01 % ID/g
same,Biodistribution: Brain,4 hours,0.08 ± 0.01 % ID/g
same,Biodistribution: GIT,4 hours,1.77 ± 0.12 % ID/g
same,Biodistribution: Heart,4 hours,4.38 ± 0.42 % ID/g
same,Biodistribution: Kidney,4 hours,2.32 ± 0.37 % ID/g
same,Biodistribution: Liver,4 hours,0.39 ± 0.06 % ID/g
same,Biodistribution: Muscle,4 hours,0.17 ± 0.05 % ID/g
same,Biodistribution: Olfactory bulbs,4 hours,0.41 ± 0.04 % ID/g
same,Biodistribution: Pancreas,4 hours,0.53 ± 0.09 % ID/g
same,Biodistribution: Spleen,4 hours,3.12 ± 0.37 % ID/g
same,Biodistribution: Stomach,4 hours,0.45 ± 0.06 % ID/g
same,Biodistribution: Testes,4 hours,0.57 ± 0.03 % ID/g
same,Biodistribution: Thymus,4 hours,1.65 ± 0.41 % ID/g
same,Biodistribution: Thyroid,4 hours,8.25 ± 1.10 % ID/g
